Measured values taken from PubChem BioAssay AID1159614 (National Center for Advancing Translational Sciences (NCATS), 2016).
The whole screen tested about 45,000 compounds, of which about 65 (0.1%) were called active. The call rests on the fitted dose curve; in most records, active means well fitted activation curve with a large enough effect; inconclusive means small, poorly fitted or top-dose-only effect; inactive means no such curve, though single readings can be large or run the other way. Some of the results follow.

The compounds below were run against Galactocerebrosidase (Homo sapiens) (UniProt P54803) (assay: A Novel Cell-Based Assay to Identify Small Molecules for B -Galactocerebrosidase). Details: 145M-Twi-hGALC-G270D cells (Twitcher mouse brain line with human GALC G270D), HMU-beta-Gal fluorescence, 48 h; series mostly up to 57.5 µM; activation: at the top concentration.
Outline: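 Brain-derived Twitcher mouse 145M-Twi cells stably expressing human GALC-G270D or wild-type GALC, treated live, then residual GALC activity read by fluorescence of HMU-b-Gal substrate (0.1 mM final) in citrate-phosphate buffer pH 5.2 with sodium taurocholate. Signal increase indicates enhancement.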
Further: 0% is about no effect; nearly all actives have a fitted effect of over 65% in size.

UniProt P54803, sequence (P54803 whole entry, looked up): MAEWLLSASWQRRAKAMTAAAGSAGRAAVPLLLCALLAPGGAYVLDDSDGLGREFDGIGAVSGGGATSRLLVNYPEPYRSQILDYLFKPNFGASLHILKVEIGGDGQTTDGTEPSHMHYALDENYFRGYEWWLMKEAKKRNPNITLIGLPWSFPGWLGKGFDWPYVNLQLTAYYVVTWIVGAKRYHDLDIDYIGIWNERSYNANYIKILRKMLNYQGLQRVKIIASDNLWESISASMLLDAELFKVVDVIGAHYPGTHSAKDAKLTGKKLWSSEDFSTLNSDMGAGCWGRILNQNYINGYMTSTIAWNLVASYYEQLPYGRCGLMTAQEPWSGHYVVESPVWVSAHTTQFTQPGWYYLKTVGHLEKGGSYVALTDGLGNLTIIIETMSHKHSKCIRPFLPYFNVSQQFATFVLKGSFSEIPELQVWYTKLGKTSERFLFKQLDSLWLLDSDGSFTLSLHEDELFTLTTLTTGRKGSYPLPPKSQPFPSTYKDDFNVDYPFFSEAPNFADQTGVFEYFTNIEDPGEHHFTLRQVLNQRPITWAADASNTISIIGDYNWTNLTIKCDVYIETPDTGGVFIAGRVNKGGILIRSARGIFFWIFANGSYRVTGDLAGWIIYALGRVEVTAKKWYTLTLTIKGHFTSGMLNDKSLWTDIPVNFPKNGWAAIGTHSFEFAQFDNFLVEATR

| SMILES | activation |
| --- | --- |
| CCN1CCSc2ccc(C(=O)NCc3cccc(Br)c3)cc21 | inactive: 7.51% |
| CCOc1ccc(NC(=O)CSc2c3c(nc4ccccc24)CCCC3)cc1 | inactive: -7.95% |
| COc1ccc2cc(CNc3ccc(C)cc3)c(=O)n(CC(=O)Nc3ccc(C)cc3Cl)c2c1 | inactive: -3.13% |
| Cc1ccc2nc(CN3CCN(S(=O)(=O)c4ccc(C(C)C)cc4)CC3)oc2c1 | inactive: -12.2% |
| CN(C)CCCn1c(-c2ccc(Cl)cc2)csc1=Nc1ccccc1 | inactive: -22.3% |
| COC(=O)c1ccc(NC(=O)CCn2cnnn2)c(C)c1 | inactive: -11.2% |
| COc1ccc(N2CCN(Cc3nc4c(c(=O)n(C)c(=O)n4C)n3C(C)C)CC2)cc1 | inactive: -14.6% |
| Cc1cc(C)cc(NC(=O)Cn2c(=O)n(-c3ccc(C)c(C)c3)c(=O)c3oc4ccccc4c32)c1 | inactive: -0.0304% |
| CCCc1cc(N2CCN(c3ccccc3F)CC2)n2cnnc2n1 | inactive: -7.69% |
| CCOC(=O)c1c(C)oc2nc(C)nc(NCCc3ccc(C)cc3)c12 | inactive: -45.9% |
| COc1cc(NC(=O)CN2CCCN(Cc3cccc(F)c3)S2(=O)=O)cc(OC)c1 | inactive: -17.8% |
| Cc1ccc(NC(=O)c2oc3ccc(S(=O)(=O)N(C)C4CCCCC4)cc3c2C)c(C)c1 | inactive: -16.9% |
| COc1ccc(-c2nc(C)c(CCNC(=O)c3ccc(C(F)(F)F)cc3)s2)cc1OC | inactive: -9.75% |
| CCOc1ccc(NC(=O)CSc2oc(-c3ccco3)nc2S(=O)(=O)c2ccccc2)cc1 | inactive: -4.53% |
| CCCNC(=O)c1cc2n(n1)CCCN(Cc1ccc(C)cc1)C2=O | inactive: -12.4% |
| CC1=C(C(=O)N2CCCCC2)C(c2ccc(Cl)cc2)n2c(nc3ccccc32)N1 (configuration not stated) | inactive: -14.7% |
| Cc1ccc(CN2C(=O)c3ccccc3Sc3ccc(C(=O)N4CCOCC4)cc32)cc1 | inactive: -12.2% |
| Cc1cccc(C(=O)Nc2ccc(N3CC=C(c4ccccc4C)CC3)c(C(=O)O)c2)c1 | inactive: -11% |
| Cc1ccc(S(=O)(=O)Nc2cc(Cl)c3oc4c(c3c2)CCCC4)cc1 | inactive: -4.41% |
| O=C(NCCc1ccccc1)c1ccc2c(c1)nc1n2CCOC1 | inactive: -17.1% |
| CCOc1ccc(CNC(=O)CSc2c3c(nc4cc(Cl)ccc24)CCCC3)cc1 | inactive: -10.7% |
| Cc1c(-c2nsc(NC(=O)c3cccs3)n2)nnn1-c1ccc(F)cc1 | inactive: -24.5% |
| COc1ccccc1CNC(=O)CCS(=O)(=O)c1ccc2c(c1)oc(=O)n2C | inactive: -7.71% |
| CCOC(=O)c1cccc(NC(=O)CSc2ncc3c(n2)-c2ccc(Cl)cc2N(Cc2ccccc2)S3(=O)=O)c1 | inactive: 10.9% |
| O=S(=O)(c1ccccc1)c1nc(-c2ccc(F)cc2)oc1NCc1ccccc1 | inactive: -15.3% |

| SMILES | activation |
| --- | --- |
| O=C(COc1ccccc1F)Nc1ccc2nc(SCC(=O)N3CCOCC3)sc2c1 | inactive: -3.36% |
| CC(C)(Oc1ccc(Cl)cc1)C(=O)OCCCOC(=O)C(C)(C)Oc1ccc(Cl)cc1 | inactive: -11.6% |
| COc1ccc(CNC(=O)CCCc2nnc3n(C(C)C)c(=O)c4sccc4n23)cc1 | inactive: -12.2% |
| Cc1ccc(OCC(=O)NCC(=O)OCc2cc(=O)n3nc(C(C)C)sc3n2)cc1 | inactive: -3.55% |
| CC(C)Oc1ccc(C(=O)N(Cc2ccc(N(C)C)cc2)Cc2ccco2)cc1 | inactive: -5.74% |
| CCOC(=O)c1oc2c(c1C)-c1nn(Cc3cccc(Cl)c3)cc1CC2 | inactive: -0.0455% |
| COc1ccc(C(=O)NC(c2ccccc2Cl)c2cc(Cl)c3cccnc3c2O)cc1 (configuration not stated) | inactive: -13.3% |
| CCN(CC)S(=O)(=O)c1ccc2c(c1)N(CC(=O)Nc1c(C)cccc1C)C(=O)C1CCCN21 (configuration not stated) | inactive: 4.76% |
| Cc1c(C)n(Cc2ccccc2)c2ccc(C(=O)N3CCN(c4ccccc4)CC3)cc12 | inactive: 3.12% |
| CCN(C(=O)Cn1c(=O)oc2cc(S(=O)(=O)N3CCCCCC3)ccc21)c1cccc(C)c1 | inactive: -13.8% |
| O=C(CCS(=O)(=O)c1ccc(Br)s1)Nc1cc(C(F)(F)F)cc(C(F)(F)F)c1 | inactive: 8.25% |
| O=C(NCc1ccccc1)NC1COc2ccccc2C1 (configuration not stated) | inactive: -14.8% |
| Cn1cc(S(=O)(=O)N2CCCCCC2)cc1C(=O)NCc1ccc(F)cc1 | inactive: -3.63% |
| Cc1cccc(C)c1Nc1c(-c2ccccn2)nc2ccc(Cl)cn12 | inactive: -11.3% |
| Cc1cccc(OC(=O)c2snnc2C)c1 | inactive: -9.43% |
| COc1ccc(-c2nc(CSCC(=O)N3CCN(c4ccccc4F)CC3)c(C)o2)cc1 | inactive: -12.2% |
| Cc1cccc(NC(=O)C(=O)NCCCN2CCOCC2)c1 | inactive: 3.95% |
| CCOc1ccc(NC(=O)c2sc(-n3nc(C)c(CCC(C)C)c3C)nc2C)cc1 | inactive: -7.25% |
| COc1ccc(NC(=O)c2nc(SCc3ccc(F)cc3)ncc2Cl)cc1 | inactive: -12.2% |
| O=C(NCCc1ccc(Cl)cc1)c1ccc(Nc2nc3ccccc3n3nnnc23)cc1 | inactive: -9.36% |
| COc1ccc(CNCc2ccc(C(=O)O)s2)cc1 | inactive: -9.07% |
| CCOc1ccccc1NC(=O)CSc1ncc2c(n1)-c1ccccc1N(CC)S2(=O)=O | inactive: -13.4% |
| CCCCOC(=O)CSc1ncnc2sc3c(c12)CCC(C)C3 (configuration not stated) | inactive: -12.2% |
| CC1=C(c2ccc(C)cc2)S(=O)(=O)NC1=NCc1ccccc1Cl | inactive: -6.63% |
| C=Cc1ccc(Cn2c(C(=O)O)c(CNCCc3ccco3)c3ccc(C)cc32)cc1 | inactive: -2.74% |

| SMILES | activation |
| --- | --- |
| COC(=O)c1cc2sccc2n1Cc1nc(-c2cccc(Cl)c2)oc1C | inactive: -1.68% |
| OCC(O)CN1CCN(c2ccccc2)CC1 (configuration not stated) | inactive: -9.96% |
| CCOc1ccccc1CNC(=O)c1ccc2nc(N3CCC(C)CC3)sc2c1 | inactive: -10.3% |
| Cc1ccccc1Nc1c(-c2ccc(N3CCOCC3)cc2)nc2cccc(C)n12 | inactive: -13.5% |
| CCC(C)Nc1nc2c(c(=O)[nH]c(=O)n2C)n1Cc1ccc(F)cc1 (configuration not stated) | inactive: -18.4% |
| Cc1ccc(-n2ncc3c(NCCc4ccc(S(N)(=O)=O)cc4)ncnc32)cc1 | inactive: -6.06% |
| O[C@@H](COc1cccc2ncccc12)CN1CCN(C2c3ccccc3[C@@H]3[C@H](c4ccccc42)C3(F)F)CC1 (some centres not stated) | inactive: -5.44% |
| COc1ccccc1N1CCN(C(=O)c2nn(C)c3c2CS(=O)(=O)c2ccccc2-3)CC1 | inactive: -4.79% |
| Cc1ccccc1-c1nc(CNC(=O)NC2CCCCC2)c(C)o1 | inactive: -7.7% |
| Cn1ccc2cc(S(=O)(=O)N3CCCC(C(=O)NCc4ccccc4F)C3)ccc21 (configuration not stated) | inactive: -10.2% |
| CC(C)c1ccc(C2CC(=O)N3CN(C4CCCCC4)CSC3=C2C#N)cc1 (configuration not stated) | inactive: -16.3% |
| CCCCN(CCCC)CCCNC(=O)c1cc(-c2ccc(Cl)s2)nc2ccccc12 | inactive: -11.4% |
| COc1ccc(-n2ncc3c2ncn2nc(-c4ccc(OC)c(OC)c4)nc32)cc1 | inactive: -10.2% |
| CC1=C(C(=O)Nc2ccccc2)C(c2ccc(Br)cc2)n2nc(CCCO)nc2N1 (configuration not stated) | inactive: -11.2% |
| CCOC(=O)c1ccc(NC(=O)Cc2noc3ccc(C)cc23)cc1 | inactive: -12.8% |
| Cn1cc(S(=O)(=O)N2CCCC2)cc1C(=O)Nc1ccc(F)cc1F | inactive: -12% |
| COc1cccc(CNC(=O)CN2C(=O)COc3ccc(S(=O)(=O)N4CCCCC4)cc32)c1 | inactive: 6.22% |
| CCN(CC)c1ccc(CN(C(=O)c2cc(=O)c3ccccc3o2)C2CCS(=O)(=O)C2)cc1 (configuration not stated) | inactive: -20.7% |
| CCn1cc2nc(SCc3cc(C)ccc3C)n(Cc3ccc(Cl)cc3)c(=O)c2n1 | inactive: -18.6% |
| Cc1ccc(-c2nc3sc(CCNC(=O)c4ccc(F)c(F)c4)c(C)n3n2)cc1 | inactive: 6.18% |
| CCCCC12CN3CC(C)(CN(C1)C3c1ccc(OCc3ccccc3)cc1)C2=O (configuration not stated) | inactive: -28.9% |
| CC1=C(C(=O)Nc2ccccc2Br)C2(CCC(C)CC2)OC1=O (configuration not stated) | inactive: -0.0584% |
| O=C(CCCCCn1c(=O)[nH]c2ccccc2c1=O)N1CCN(c2cccc(C(F)(F)F)c2)CC1 | inactive: -8.37% |
| Cc1ccc(CNC(=O)CCCCCn2c(=O)c3sccc3n(CC(=O)N3CCCCC3C)c2=O)cc1 (configuration not stated) | inactive: -10.6% |
| O=C(C1CCN(S(=O)(=O)c2cccs2)CC1)N1CCN(c2ccccc2F)CC1 | inactive: 4.29% |

| SMILES | activation |
| --- | --- |
| CCCn1cc(S(=O)(=O)c2ccc(C)c(C)c2)c(=O)c2cc(F)c(N3CCCCC3)cc21 | inactive: -13.9% |
| CC(C)NC(=O)c1ccc(CSc2nc3ccncc3n2Cc2cccc(F)c2)cc1 | inactive: -10.3% |
| CCC(CC)C(=O)Nc1ccc(S(=O)(=O)N2CCC(c3nc4ccccc4s3)CC2)cc1 | inactive: -3.81% |
| Cc1nc(-c2ccc(S(=O)(=O)N3CCN(c4ccccc4F)CC3)cc2)co1 | inactive: -2.61% |
| Cc1ccccc1NC(=O)c1c(C)oc2ccc(O)c(CN3CCCCCC3)c12 | inactive: -5.23% |
| COc1ccc(C)cc1NC(=O)CN(C)S(=O)(=O)c1ccc2c(c1)c(=O)n(C)c(=O)n2C | inactive: 9.21% |
| FC(F)(F)c1cccc(Nc2nc3nonc3nc2Nc2ccc(Cl)cc2)c1 | inactive: -10.2% |
| CCN(C(=O)Cn1c(C(=O)OC)cc2sccc21)c1cccc(C)c1 | inactive: -11.5% |
| CNC(=O)c1c(I)c(NC(C)=O)c(I)c(C(=O)O)c1I | inactive: -13.2% |
| Cc1ccccc1NC(=O)c1sc2nc(-c3cc4ccccc4oc3=O)[nH]c(=O)c2c1C | inactive: -16.6% |
| CC(=O)Nc1cccc(NC(=O)CSc2nccn2Cc2ccccc2)c1 | inactive: -15.2% |
| Cc1ccccc1-c1noc(-c2ccc(NCc3cccnc3)c([N+](=O)[O-])c2)n1 | inactive: -40.6% |
| CC1=C(c2ccc(C(C)C)cc2)S(=O)(=O)N=C1N1CCC(C(=O)NCc2ccc(C)o2)CC1 | inactive: -14.1% |
| O=C(NC1CCCCC1)c1ccc(CSc2nc3cccnc3n2Cc2ccccc2)cc1 | inactive: -8.35% |
| Cc1nc2c(-c3ccc(F)cc3)c(C)nn2c(C)c1CCC(=O)NCc1ccc(F)cc1 | inactive: -4.42% |
| CCOC(=O)c1c(C)[nH]c(CCC(=O)NCc2ccc(OC)cc2OC)c1C | inactive: -11.1% |
| COc1ccc(OCCCn2c(C3CC(=O)N(c4ccc(F)cc4)C3)nc3ccccc32)cc1 (configuration not stated) | inactive: -30.8% |
| CC(=O)c1cccc(NC(=O)Cn2ccn3nc(-c4ccccc4)cc3c2=O)c1 | inactive: -2.58% |
| Cc1cc(Nc2cc(Cl)ccc2C)n2nc(-c3ccccc3)nc2n1 | inactive: -13.3% |
| Cc1c(CC(=O)NCCc2ccccc2)c(=O)oc2c(C)c3occ(C(C)(C)C)c3cc12 | inactive: -11.4% |
| Cc1cc(C)c2c(NC(=O)c3ccccc3Cl)c(C(=O)NCc3ccc(Cl)cc3)sc2n1 | inactive: -11.5% |
| O=C(COc1ccccc1-c1nc(-c2ccccc2)no1)Nc1ccc([N+](=O)[O-])cc1 | inactive: -12.4% |
